In all, about 81,000 sequences were measured (“one-hybrid fitness for binding parS DNA”: median about -0.17, highest 2% from about 0.51 on). The list shows a part of the results.
B1: Caulobacter ParB omega fusion; a variant is named by its letters at X, in order, B8GW30 (parent)
chain: MESVVVGEPGMSEGRRGLGRGLSALLGEVDAAPAQAPGEQLGGSREAPIEILQRNPDQPRRTFREEDLEDLSNSIREKGVLQPILVRPSPDTAGEYQIVAGERAWRAAQRAGLKTVPIMVRELDDLAVLEIGIIENVQRADLNVLEEALSYKVLMEKFERTQENIAQTIGKSXSHVANXMRLLXLPDEVQSYLVSGELTAXHARAIAAAADPVALAKQIIEGGLSVRETEALARKAPNLSAGKSKGGRPPRVKDTDTQALESDLSSVLGLDVSIDHRGSTGTLTITYATLEQLDDLCNRLTRGI

Variants of: B1
Test: one-hybrid fitness for binding parS DNA (scaled: cognate 1, non-cognate 0); higher = stronger binding
Details: with parS DNA site
Outline: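 On M9-minus-histidine containing 0.1 mM IPTG and 5 mM 3-AT, E. coli USO cells with a HIS3 reporter, site 19 bp from the promoter, grew 48 hours at 37°C to select Caulobacter ParB libraries randomised at four specificity codons. Plasmids from before and after were Illumina-sequenced, with three replicate libraries pooled and variants under 10 reads left out. Fitness is the log change in variant-to-wild-type read ratio, rescaled against cognate and non-cognate.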

| Variant | one-hybrid fitness for binding parS DNA |
| --- | --- |
| ATGN | ≤ 0.2 |
| WQES | ≤ 0.2 |
| WMVY | ≤ 0.2 |
| KCTG | ≤ 0.2 |
| YTSA | ≤ 0.2 |
| ETQG | ≤ 0.2 |
| YCTF | ≤ 0.2 |
| CAQD | ≤ 0.2 |
| AKYK | ≤ 0.2 |
| NFEG | ≤ 0.2 |
| SITH | ≤ 0.2 |
| VCLR | ≤ 0.2 |
| RFNL | ≤ 0.2 |
| QLKT | ≤ 0.2 |
| EFTH | ≤ 0.2 |
| CTRG | ≤ 0.2 |
| RPHT | ≤ 0.2 |
| SLRY | ≤ 0.2 |
| VGHV | ≤ 0.2 |
| NHWV | ≤ 0.2 |
| QHYE | ≤ 0.2 |
| PWSS | ≤ 0.2 |
| QSSA | ≤ 0.2 |
| LGPS | ≤ 0.2 |
| DPPP | ≤ 0.2 |

| Variant | one-hybrid fitness for binding parS DNA |
| --- | --- |
| CRSV | ≤ 0.2 |
| RLFW | 0.259 |
| KICK | ≤ 0.2 |
| CLEG | ≤ 0.2 |
| QRIH | ≤ 0.2 |
| QRCP | ≤ 0.2 |
| TSHV | ≤ 0.2 |
| ADPI | ≤ 0.2 |
| RAKS | 0.874 |
| DIRR | ≤ 0.2 |
| MYLT | ≤ 0.2 |
| RWFA | 0.298 |
| NKTC | ≤ 0.2 |
| EPWS | ≤ 0.2 |
| DSCK | ≤ 0.2 |
| QYIL | ≤ 0.2 |
| NYLV | ≤ 0.2 |
| KYDL | ≤ 0.2 |
| KRDV | ≤ 0.2 |
| HCSM | ≤ 0.2 |
| SMRV | ≤ 0.2 |
| TPSN | ≤ 0.2 |
| FTLG | ≤ 0.2 |
| LSLL | ≤ 0.2 |
| DILT | ≤ 0.2 |

| Variant | one-hybrid fitness for binding parS DNA |
| --- | --- |
| QTHC | ≤ 0.2 |
| VHES | ≤ 0.2 |
| MDVT | ≤ 0.2 |
| VHPL | ≤ 0.2 |
| CRNN | ≤ 0.2 |
| QVHR | ≤ 0.2 |
| QMGI | ≤ 0.2 |
| MKLT | ≤ 0.2 |
| MMSS | ≤ 0.2 |
| KDIS | ≤ 0.2 |
| VAVF | ≤ 0.2 |
| ILFV | ≤ 0.2 |
| RFFV | ≤ 0.2 |
| PFQR | ≤ 0.2 |
| IVMR | ≤ 0.2 |
| PYDL | ≤ 0.2 |
| TWTG | ≤ 0.2 |
| PPQD | ≤ 0.2 |
| QKSN | ≤ 0.2 |
| MCTL | ≤ 0.2 |
| REAM | ≤ 0.2 |
| EISE | ≤ 0.2 |
| SIEC | ≤ 0.2 |
| RCPA | 0.432 |
| MLTL | ≤ 0.2 |

| Variant | one-hybrid fitness for binding parS DNA |
| --- | --- |
| IWDG | ≤ 0.2 |
| QRLQ | ≤ 0.2 |
| SYGR | ≤ 0.2 |
| GSHH | ≤ 0.2 |
| GPFC | ≤ 0.2 |
| LPFD | ≤ 0.2 |
| TDCI | ≤ 0.2 |
| IKTV | ≤ 0.2 |
| SARN | ≤ 0.2 |
| QDGG | ≤ 0.2 |
| DGTM | ≤ 0.2 |
| QLDY | ≤ 0.2 |
| LNMH | ≤ 0.2 |
| YTHF | ≤ 0.2 |
| QPKA | ≤ 0.2 |
| AHQW | ≤ 0.2 |
| YQMC | ≤ 0.2 |
| QFLS | ≤ 0.2 |
| FTCT | ≤ 0.2 |
| VVLC | ≤ 0.2 |
| MHGT | ≤ 0.2 |
| RMKM | 0.391 |
| PRYN | ≤ 0.2 |

Source: a collection of fitness landscapes (doi:10.1016/j.celrep.2020.107928)
